Hit rate of the full screen: of about 52,000 compounds, about 1,700 (3.3%) were called active. Rule as the data show it: active = survival mostly below about 52% (no sharp cut-off); inactive = mostly above about 56%. The list shows a part of the results.
system: Wild type; assay: S. aureus survival, RN4220 and DeltatarO strains – OD600, teichoic acid synthesis inhibitors, primary screen (AID 463173); settings: S. aureus RN4220 wild type/DeltatarO growth, OD600, 18 h, active compounds read low, screened at 18.75 µg/mL (by protocol)

Structure (SMILES)	survival
CCN1CCN(C(c2ccccc2)c2c(O)cc(C)n(Cc3ccco3)c2=O)CC1 (configuration not stated)	inactive: 110%
O=C(NC1CCS(=O)(=O)C1)Sc1ccccc1 (configuration not stated)	inactive: 115%
c1ccc(CCn2nnnc2C(c2cccnc2)N2CCCCC2)cc1 (configuration not stated)	inactive: 114%
O=C(Nc1ccccc1F)c1ccc(-c2ccccc2)s1	inactive: 84%
COC(=O)c1c(N)n(-c2ccc(OC)c(Cl)c2)c2nc3ccccc3nc12	inactive: 74%
COc1ccc(-c2nnc3c4ccccc4c(-c4ccccc4)nn23)cc1	inactive: 66%
CCOc1ccc(CCNC(=O)c2cccc(-n3c(C)nc4cccnc43)c2)cc1	inactive: 138%
O=C(COc1ccc(Cl)cc1)NCCc1csc(-c2ccc(F)cc2)n1	inactive: 73%
CCN(CC)C(=O)c1sc2c(c1C)c(=O)n(-c1ccc(Cl)c(Cl)c1)c(=O)n2CC(=O)Nc1cccc(OC)c1	inactive: 82%
CCOC(=O)c1nnn(CC(=O)NC(=O)Nc2cccc(CC)c2)c1C(=O)OCC	inactive: 70%
CC(=O)c1cccc(NC(=O)c2nc3ccccc3nc2N2CCCCC2)c1	inactive: 74%
Cc1ccc(Cl)cc1N1CCN(C(=O)C2CCN(S(=O)(=O)c3ccc4c(c3)oc(=O)n4C)CC2)CC1	inactive: 66%
Nc1ccc2nc(CN3CCOCC3)[nH]c2c1	inactive: 98%
O=C(Nc1ccc(F)cc1Cl)C1Cc2ccccc2N1C(=O)c1ccccc1 (configuration not stated)	inactive: 94%
O=C(CCn1nc(-c2ccc(Cl)cc2)c2ccccc2c1=O)Nc1ccc(OC(F)(F)F)cc1	inactive: 139%
COc1ccc(OC)c(CNC(=O)C2CCN(c3ncnc4c3nc3n4CCCCC3)CC2)c1	inactive: 81%
CN1C(=O)C2(c3ccccc31)N(c1ccc(F)c(Cl)c1)C(=O)CS2(=O)=O (configuration not stated)	inactive: 81%
COC(=O)c1cc(S(=O)(=O)NCC2CCN(Cc3ccccc3F)CC2)c[nH]1	inactive: 72%
Cc1cc(C)c2c(n1)nn1c(C)c(CCC(=O)NCc3ccc(Cl)cc3)c(C)nc21	inactive: 80%

Structure (SMILES)	survival
Cc1ccc(C2=NN(CC(=O)NCCc3ccc(Cl)cc3)C(=O)CC2)cc1	inactive: 121%
CCC(=O)N1CCc2cc(S(=O)(=O)CCC(=O)N3CCN(c4ccc(C(C)=O)cc4)CC3)ccc21	inactive: 89%
CCOc1ccc(-c2cn3c(n2)sc2cc(C(=O)NCCc4ccc(OC)c(OC)c4)ccc23)cc1	inactive: 69%
Cc1ccc(Cl)cc1NC(=O)CC1SC(N)=NC1=O (configuration not stated)	inactive: 105%
Cc1cccc(NC(=O)N2CCC(n3c(C)nc4cccnc43)CC2)c1	inactive: 85%
COc1ccc(CCNC(=O)CCn2c(=O)c3cccn3c3cccnc32)c(OC)c1OC	inactive: 99%
CCOC(=O)N1CCC(NC(=O)c2ccc3c(c2)N(Cc2cc(C)ccc2C)C(=O)c2ccccc2S3=O)CC1 (configuration not stated)	inactive: 80%
CCC(C)(C)NC(=O)Cn1c(=O)ccc2cc(S(=O)(=O)N3CCC(C)CC3)ccc21	inactive: 101%
O=C(CSc1nccn1Cc1ccccc1)Nc1ccc2c(c1)OCO2	inactive: 138%
O=C1C=CC(=O)C(c2ccc(Cl)cc2)=C1	inactive: 55%
CCOc1cc(C(=O)NCCc2csc(-c3ccc(C)cc3)n2)cc(OCC)c1OCC	inactive: 76%
Cc1ccc(S(=O)(=O)/N=C(\N)Nc2nc3ccccc3o2)cc1	inactive: 108%
Cc1cc(C)nc(Nc2ccc(S(N)(=O)=O)cc2)n1	inactive: 119%
CN(C(=O)c1cc2c(=O)n3ccccc3nc2n1C)c1ccccc1	inactive: 82%
Cn1cc(CCCC(=O)NCc2ccccc2Cl)c2ccccc21	inactive: 80%
CCOC(=O)c1c(NC(=O)CSc2nc(-c3ccccc3)cc(C(F)(F)F)n2)sc(C)c1C	inactive: 66%
O=C1CC(=O)SC(c2ccccc2)=N1	inactive: 105%
CC(=O)Nc1nnc(SCc2cc(=O)c3cccc(Cl)c3[nH]2)s1	inactive: 89%
CCOc1ccc(CCNC(=O)Cn2nnc(-c3ccc(C(F)(F)F)cc3)n2)cc1OCC	inactive: 104%

Structure (SMILES)	survival
O=C(CCC1CCCC1)NCc1ccccn1	inactive: 111%
CC(=O)N1c2ccc(S(=O)(=O)N3CCCCCC3)cc2CC1C(=O)NCc1ccccc1F (configuration not stated)	inactive: 131%
CCOc1ccc(OCC)c(Nc2cc(C)nc3nc(-c4ccco4)nn23)c1	active: -1%
O=C(c1ccc([N+](=O)[O-])cc1)N1CCN(c2ccc(Nc3ccccc3)nn2)CC1	inactive: 51%
CCOc1ccc(CCNC(=O)CN2C(=O)c3cccnc3Oc3ccc(Cl)cc32)cc1	inactive: 71%
O=C(CSc1nnc(Cc2ccccc2)o1)N(c1ccccc1)c1ccccc1	inactive: 99%
Cc1ccc(CNc2ccc(-c3nc(-c4ccccn4)no3)cc2[N+](=O)[O-])cc1	inactive: 124%
CCCCN(CCCC)CCNC(=O)c1cn(C)c2ccc(S(=O)(=O)N3CCCC3)cc2c1=O	inactive: 164%
CCOC(=O)c1c(S(=O)(=O)N2CCC(C(=O)Nc3ccc(OCC)cc3)CC2)c(C)n(C)c1C	inactive: 125%
CCc1ccc(C2c3c(-c4cc(C)ccc4O)n[nH]c3C(=O)N2Cc2cccnc2)cc1 (configuration not stated)	inactive: 74%
Cc1ccc(OCc2nc(-c3ccc(C(=O)N4CCN(c5ccccc5)CC4)cc3)oc2C)cc1	inactive: 87%
O=C(NCc1ccccc1Cl)c1ccc(Nc2nc3ccccc3n3nnnc23)cc1	inactive: 86%
COc1ccc(OC)c(NC(=O)N2c3ccccc3Sc3ccccc32)c1	inactive: 19%
Cc1nn(CCC(=O)N2CCN(c3ccccc3)CC2)c(C)c1S(=O)(=O)N1CCCC1	active: -6%
CCc1cnc2c(c1SCC(=O)N1CCC(C)CC1)c(=O)n(C)c(=O)n2C	inactive: 69%
Cc1c(NC(=O)Nc2ccc(F)c(Cl)c2)c(=O)n(-c2ccccc2)n1C	inactive: 78%
Cc1cccc(N2CC(C)Cn3c2nc2c3c(=O)n(CC(=O)O)c(=O)n2C)c1 (configuration not stated)	inactive: 133%
Cc1ccc(-n2nc(C)c3c(C(=O)NCc4ccc(F)cc4)cc(C)nc32)cc1	inactive: 88%
CCOc1cc(CNC(=O)c2ccc3c(c2)N(C)C(=O)C2CCCCN32)cc(OCC)c1OCC (configuration not stated)	inactive: 124%
